This is an account of results in the RNAGym collection of RNA variant scans (doi:10.7554/elife.90254).

The source gives no read counts; variants with many changes may rest on few reads.

B1: LINE1-mini (parent)
chain: GGCAGAGCUCAACACAGCGUGGCAAAGUGGCUGUGGCUAGACUGCC

Variants of B1 are the subject of the series. The series is described as follows: self-cleavage, relative activity (ratio to wild type); higher = more cleavage; in vitro, sequencing; the parent is a self-cleaving ribozyme.
In the case of U9G C10G U20A U28G, the self-cleavage is 0.01.
For U9C G29U U38C the value was 0.04; for U9C G35U C37G, 0.06; for U9C U38G C42G, 0.02.
For U9G A12C G33A U38A A41G the value was 0.01.
For U9G A12C U28C G36C the value was 0.02; for U9C A16U G30A, 0.04.
Take U9C A11U C13U: the self-cleavage was found to be 0.05.
For U9C C23U G29U the value was 0.03.
For U9G C10A U43G G44U, the self-cleavage was determined as 0.
For U9C C23G A24C G40C the value was 0.01; for U9C U20A G33U C46A, 0.05; for U9C G17U C18G G19U, 0.02.
For U9C C31A U43G the value was 0; for U9A U20G G33A C37U, 0.06.
For U9C A16U C18A G22C A39U the value was 0; for U9C A12G C45A, 0.04.
As to U9C A24C A41C, the self-cleavage was 0.02.
For U9C C18U U28C G29U the value was 0.03; for U9G A14C C18A G35C A39G A41U, 0.02; for U9G C10A C13U C15A A24G G30C, 0.02.
For U9C A16C U20C G22C G30U the value was 0.01.
For U9A U34A G35A the value was 0.11; for U9C A11C G17C U20A G36A G44A, 0.01.
Consider U9G A12U A16C G21A A24G, for which the self-cleavage is 0.
For U9C C13U U32C G36A the value was 0.06; for U9C G17A U28G C37U, 0.
Take U9C C42U C45U: the self-cleavage is 0.
Take U9C C15A C23A G29U U38A: the self-cleavage worked out at 0.02.
As to U9C C31A C37U, the self-cleavage was 0.03.
U9G A12C U20A G22U C37U U43G: the self-cleavage was 0.
For U9C C13G C42G C45A, the self-cleavage worked out at 0.01.
Take U9C C10A G17A G35U: the self-cleavage turned out to be 0.02.
U9G A12U G35A: the self-cleavage turned out to be 0.09.
Turning to U9C A25G G30A G40C, the self-cleavage turned out to be 0.01.
For the variant U9A U20G U34C C45U, the self-cleavage worked out at 0.09.
As to U9G A16U G33A A39C U43C, the self-cleavage was 0.03.
Regarding U9C C31G G33A, the self-cleavage worked out at 0.03.
Consider U9C A11G C18A A26C, for which the self-cleavage worked out at 0.01.
As to U9C C42G G44C, the self-cleavage stood at 0.01.
Consider U9G A12U A24G G33U U38C C45A, for which the self-cleavage was 0.01.
Take U9G A14G A25C: the self-cleavage amounted to 0.07.
Regarding U9C A14U G19C G22A C31A C45A, the self-cleavage is 0.01.
Regarding U9G A14G C37U, the self-cleavage worked out at 0.06.
Regarding U9C U20A G30C, the self-cleavage came to 0.01.
For U9G A12U G29C G30U C37G the value was 0.02; for U9C G17U U43G, 0.02.
For U9C C10A G27U U28G U34C the value was 0.09.
Take U9C G36A G40U: the self-cleavage came out at 0.12.
On to U9C A11U G36A G40C, for which the self-cleavage was determined as 0.
For U9C U20G G22U C23U, the self-cleavage worked out at 0.
For U9C G22A G27U the value was 0.06.
For U9C C13A C31G G40U the value was 0; for U9C A12U G17U G19A U20G, 0.04.
Consider U9C U38G C46G, for which the self-cleavage was 0.01.
As for U9G A14C C15G, the self-cleavage came out at 0.02.
For U9G A12U G40C A41C the value was 0.02.
For U9C G30A C31A the value was 0.04.
For U9C A26G G44C the value was 0.
For U9C A11U G17A A25G C37U, the self-cleavage was 0.01.
Regarding U9G A12U A25U, the self-cleavage amounted to 0.12.
As to U9C A25U U28G G40U, the self-cleavage was 0.04.
As for U9C G22U G44U, the self-cleavage was 0.02.
For U9C G21U C31A C45G the value was 0.04.
For the variant U9C A12U A41G, the self-cleavage worked out at 0.02.
Take U9C C37U A41C: the self-cleavage amounted to 0.03.
For U9C C15G G22C A39C C42G the value was 0.01; for U9G A25C G35U, 0.02.
U9C C13A G17C G33U: the self-cleavage was 0.
For U9C A12G A16C G36C the value was 0.01.
As to U9C C13A C15U G29C G33A U34G, the self-cleavage is 0.
As to U9C G19C C23G, the self-cleavage stood at 0.01.
Regarding U9C A26C G30U, the self-cleavage is 0.02.
For U9G A14U G22A A25C G35C C42U U43A the value was 0.01; for U9G A11U C23G C31U A39U, 0; for U9C C15G G22U U32C U43A C45A C46U, 0.02.
For U9C G36U G40C the value was 0.04; for U9G A16G G19C G21A, 0.03; for U9C C15A G27A, 0.04.
For U9C G29U G35C A39G the value was 0.02; for U9C A12C G40U, 0.03.
Regarding U9C C31A C45G C46U, the self-cleavage came to 0.03.
For U9G C10A C13A G30U G44C the value was 0.06; for U9A U28G G30U, 0.11.
For U9C C15U G21U C42U C46A the value was 0; for U9C G30U G40U, 0.03; for U9C A26G G33C, 0.02.
For U9C U32C C45G the value was 0.
In the case of U9C A24G U28C, the self-cleavage came to 0.07.
U9G A11U A12G A16G G27C C37U: the self-cleavage was 0.04.
For U9C A16U G30U A41U the value was 0.09; for U9C C10A A11C C31G G35U, 0; for U9C A11G A12G G22C U38A, 0.
As for U9C A11C C13U G19A C23U U38A A39C, the self-cleavage was 0.
For U9G A16U U20C the value was 0.02; for U9C G19U A25C G30C U38C, 0.01.
For U9C C18G U34C G40C G44A C46A the value was 0.01; for U9C A16C U20A, 0.05; for U9C C10U A39U, 0.04.
Turning to U9C G30U G36A, the self-cleavage was 0.02.
For U9C A14G U34G the value was 0.
For U9C A14C G27A the value was 0.03; for U9C G22U C31U U34G C46A, 0.01; for U9C A16C G19U, 0.04.
As to U9C G17U C18G, the self-cleavage is 0.02.
For U9C U20C C46A the value was 0.02; for U9C C15A C23U G29A, 0.02; for U9A U34G G40U, 0.02.
For U9C C13U A41G the value was 0.02; for U9G A12G G29U, 0.01; for U9G A16C G22U A39C, 0.02.
For the variant U9C C13G G17U A39C, the self-cleavage worked out at 0.01.
For U9C C13A C15A C23G A41U the value was 0; for U9C C18U C23A U28G G36C, 0.02; for U9C C13A C18G G44A, 0.03.
For U9G A12U G22C C31A U38A the value was 0.01; for U9A U34C C37A, 0.09; for U9C U20A C23G, 0.02.
With U9C A14C C37A, the self-cleavage is 0.03.
U9C G17A G21U: the self-cleavage was found to be 0.01.
On to U9C A11C U34C C46A, for which the self-cleavage was found to be 0.
For U9G C10G C13U C15U G36C G44U C45G the value was 0; for U9G A12G A25U U28C C31G, 0.02; for U9C G19A G22U A41C C42A, 0.03.
For U9C A26C G30C A39U the value was 0.01.
For U9G A16G G36A the value was 0.02.
For U9C G33A G35C U38G, the self-cleavage is 0.03.
Regarding U9C G21A G27C U43A, the self-cleavage came out at 0.03.
For U9G A41C C42U C45U the value was 0.12.
For U9C C15A C18U G30C the value was 0.01.
U9C A12U C13G A39U: the self-cleavage came to 0.02.
With U9C C15A C23G A26U C42A, the self-cleavage was determined as 0.02.
As to U9G A24C G27C G36C, the self-cleavage turned out to be 0.06.
For U9G A26G A41C C42G the value was 0.
Regarding U9C G33A C45G, the self-cleavage came out at 0.01.
As to U9C G17C G19A, the self-cleavage was 0.03.
For the variant U9C G21A G36U, the self-cleavage came to 0.04.
Take U9G C10G U28C: the self-cleavage was 0.04.
For U9C G17A G19C G22C G36U A41U the value was 0; for U9C G30C U34G G36A, 0.
For U9C G29C G35U the value was 0.01; for U9G A14G G21A G35U, 0.02.
Turning to U9C G17A A25C G36C G44U, the self-cleavage turned out to be 0.
For U9C G22A G36A C37U A41U C45A the value was 0.01; for U9A U28C C31G U32C, 0.12.
For U9G A12G C15G C23U U28C the value was 0.02; for U9C U32G C37G, 0; for U9C U32G C37U, 0.03.
For U9C G33A A39U, the self-cleavage amounted to 0.02.
As for U9C A12U A24U, the self-cleavage is 0.04.
For U9G A11U U20C A25G G30C the value was 0.01; for U9C C10G C23A G27C U28G, 0.01.
As to U9C U20C A24U G40C, the self-cleavage turned out to be 0.02.
For U9G A25G G27C U38C the value was 0.01; for U9C C10G G17U U32C C37A C42U C45G, 0; for U9C C18A U28C G30A C31G U32A, 0.02.
For U9G A12C A39G the value was 0.
For U9C A16C G21U G40U the value was 0.
U9C C13U G21A G33U G36U A39U: the self-cleavage is 0.01.
On to U9C G17A G33A, for which the self-cleavage was 0.02.
U9C G17U C45U: the self-cleavage was found to be 0.
For U9C C42G C46A the value was 0.01; for U9G A12C C13G C15U, 0.02; for U9C A14C G17C G27C, 0.04.
As to U9C C23U A39G, the self-cleavage was determined as 0.02.
For U9C C10U G40A, the self-cleavage was 0.05.
Regarding U9C A26G G35C, the self-cleavage stood at 0.02.
